About 220 (0.56%) of roughly 39,000 compounds showed activity. This is one part of the list.
test system: Escherichia coli K-12 BW25113; experiment: relative growth (OD600 normalised to plate interquartile mean) (fraction); higher = less growth inhibition, active = 0.2 or less; conditions: 50 µM; LB; incubation time: overnight (16-24 h)
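Further: static incubation at 37 °C against the wild-type strain, values averaged over two biological replicates.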

| SMILES | relative growth |
| --- | --- |
| Cc1ccc(S(=O)(=O)N(C)C[C@H]2Oc3ccc(NC(=O)NC(C)C)cc3C(=O)N([C@H](C)CO)C[C@H]2C)cc1 | inactive: 1.03 |
| Cc1noc(C)c1S(=O)(=O)Nc1ccc2c(c1)C(=O)N([C@@H](C)CO)C[C@H](C)[C@@H](CN(C)S(=O)(=O)c1ccccc1)O2 | inactive: 1 |
| O=C(CCCCCCC(=O)Nc1ccc([C@H]2C[C@H](c3ccccc3)O[C@H](c3ccncc3)O2)cc1)NO | inactive: 0.955 |
| COc1ccc(S(=O)(=O)Nc2ccc3c(c2)CC(=O)N([C@H](C)CO)C[C@@H](C)[C@@H](CN(C)S(=O)(=O)c2ccccc2)O3)cc1 | inactive: 0.998 |
| C[C@@H]1CN([C@H](C)CO)C(=O)c2cc(-c3cccnc3)cnc2O[C@H]1CN(C)Cc1ccc(-c2ccccc2)cc1 | inactive: 1.03 |
| Cn1c2c(c(=S)[nH]c1=O)CCC2 | inactive: 0.95 |
| C[C@H]1CN([C@@H](C)CO)C(=O)c2ccccc2-c2ccccc2CO[C@@H]1CN(C)C(=O)c1cc(Cl)cc(Cl)c1 | inactive: 0.983 |
| C[C@@H]1CN([C@@H](C)CO)C(=O)c2cccc(NC(=O)CCCCCC(=O)Nc3ccccc3N)c2O[C@H]1CN(C)C(=O)Nc1ccccc1 | inactive: 0.981 |
| C[C@@H]1CN([C@H](C)CO)C(=O)c2cc(NC(=O)Nc3ccc(F)cc3)ccc2O[C@@H](C)CCCCO[C@H]1CN(C)Cc1ccc(C(=O)O)cc1 | inactive: 0.932 |
| C[C@@H]1CN([C@H](C)CO)C(=O)Cc2cc(NS(C)(=O)=O)ccc2O[C@H]1CN(C)Cc1ccc2c(c1)OCO2 | inactive: 1 |
| C[C@@H]1CCCCO[C@H](CN(C)C(=O)Nc2cccc3ccccc23)[C@@H](C)CN([C@@H](C)CO)C(=O)c2cc(NS(=O)(=O)c3ccccc3)ccc2O1 | inactive: 1.01 |
| Cc1cc(CCC[C@H](CC(=O)NO)C(=O)N[C@H](C(=O)N[C@H](C)c2ccccc2)C(C)(C)C)ccc1-c1ccccc1 | inactive: 0.879 |
| C[C@@H]1CN([C@H](C)CO)C(=O)c2cc(NS(C)(=O)=O)ccc2O[C@H]1CN(C)S(=O)(=O)c1cn(C)cn1 | inactive: 1.04 |
| C[C@@H]1CCCCO[C@@H](CN(C)CC2CCCCC2)[C@@H](C)CN([C@@H](C)CO)C(=O)c2cc(NC(=O)Cc3ccccc3)ccc2O1 | inactive: 1.01 |
| CC(=O)N1CCOC[C@@]2(C1)CN(S(C)(=O)=O)CCO2 | inactive: 0.971 |
| COC1=C(N)C(=O)c2nc(-c3nc(C(=O)O)c(C)c(-c4ccc(OC)c(OC)c4O)c3N)ccc2C1=O | active: 0.038 |
| C[C@H]1CN([C@@H](C)CO)C(=O)c2cccc(NS(C)(=O)=O)c2O[C@@H]1CN(C)S(=O)(=O)c1cccs1 | inactive: 1 |
| C[C@H]1CCCCO[C@H](CN(C)C(=O)Cc2ccccc2)[C@@H](C)CN([C@@H](C)CO)C(=O)c2cc(NS(=O)(=O)c3ccc(F)cc3)ccc2O1 | inactive: 1.03 |
| COc1ccc(NC(=O)Nc2ccc3c(c2)C(=O)N([C@@H](C)CO)C[C@H](C)[C@H](CN(C)Cc2ccc(Cl)c(Cl)c2)OCCCC[C@@H](C)O3)cc1 | inactive: 1.03 |
| C[C@H](CO)N1C[C@H](C)[C@H](CN(C)C(=O)Nc2cccc3ccccc23)OCCCC[C@H](C)Oc2ccc(NS(C)(=O)=O)cc2C1=O | inactive: 0.974 |
| C[C@@H]1CN([C@H](C)CO)S(=O)(=O)c2ccc(C#Cc3cccc(F)c3)cc2O[C@@H]1CN(C)S(=O)(=O)c1ccccc1F | inactive: 1.03 |

| SMILES | relative growth |
| --- | --- |
| COc1cc(OC)cc(C(=O)OCCCNCCNCCCOC(=O)c2cc(OC)cc(OC)c2)c1 | inactive: 0.932 |
| Cc1noc(C)c1NC(=O)Nc1cccc2c1O[C@H](CN(C)C(=O)NC(C)C)[C@@H](C)CN([C@@H](C)CO)C2=O | inactive: 1.01 |
| CC(C)c1cccc(C(C)C)c1NC(=O)Cc1cccs1 | inactive: 0.853 |
| C[C@H](CO)N1C[C@H](C)[C@@H](CN(C)CC2CC2)Oc2c(NS(=O)(=O)c3ccccc3)cccc2C1=O | inactive: 1.01 |
| C[C@H](CO)N1C[C@H](C)[C@@H](CN(C)C(=O)Nc2cccc3ccccc23)Oc2ccc(NC(=O)Cc3ccccc3)cc2CC1=O | inactive: 0.995 |
| C[C@H]1CN([C@@H](C)CO)S(=O)(=O)c2ccc(C3=CCCC3)cc2O[C@H]1CN(C)S(=O)(=O)c1cn(C)cn1 | inactive: 0.99 |
| C[C@@H]1CCCCO[C@H](CN(C)S(=O)(=O)c2cccs2)[C@@H](C)CN([C@@H](C)CO)C(=O)c2cc(NC(=O)Nc3ccc(C(F)(F)F)cc3)ccc2O1 | inactive: 1.03 |
| O=C(CCn1ccc(=O)[nH]c1=O)Nc1ccc2c(c1)NC(=O)CO2 | inactive: 0.895 |
| C[C@@H]1CN([C@@H](C)CO)C(=O)c2cccc(NS(=O)(=O)c3cccs3)c2O[C@H]1CN(C)S(=O)(=O)c1ccc(F)cc1 | inactive: 0.996 |
| C[C@@H]1CN([C@H](C)CO)C(=O)c2cc(NC(=O)C3CCCCC3)ccc2O[C@@H]1CN(C)C(=O)Nc1cccc2ccccc12 | inactive: 1.02 |
| C[C@@H]1CCCCO[C@@H](CN(C)S(=O)(=O)c2ccccc2)[C@H](C)CN([C@H](C)CO)C(=O)c2cc(NC(=O)Nc3cccc4ccccc34)ccc2O1 | inactive: 1.03 |
| C[N+](C)(C)CC(O)CC(=O)[O-] (stereo unspecified) | inactive: 0.989 |
| C[C@@H]1CN([C@@H](C)CO)C(=O)c2c(c3ccccc3n2C)-c2ccccc2CO[C@H]1CN(C)C(=O)Nc1ccc2c(c1)OCO2 | inactive: 0.989 |
| COc1ccc(C#Cc2cnc3c(c2)C(=O)N([C@H](C)CO)C[C@H](C)[C@@H](CN(C)C(=O)CC2CC2)O3)cc1 | inactive: 1.01 |
| C[C@H](CO)N1C[C@H](C)[C@H](CN(C)C(=O)Nc2ccc(N3CCCCC3)cc2)OCc2cn(nn2)CCCC1=O | inactive: 0.968 |
| C[C@H]1CN([C@@H](C)CO)C(=O)c2cccc(NC(=O)c3ccc(-c4nccs4)cc3)c2O[C@H]1CN(C)Cc1ccc(-c2ccccc2)cc1 | inactive: 0.963 |
| C[C@@H]1CN([C@H](C)CO)C(=O)CCCn2nncc2CO[C@H]1CN(C)Cc1cccc2c1OCCCO2 | inactive: 0.983 |
| COCCOC(=O)N1C(=O)[C@@]2(c3cc(C#CC4=CCCCC4)ccc31)[C@H](C(=O)NC[C@H](O)c1ccccc1)[C@H]1C(=O)O[C@H](c3ccccc3)[C@H](c3ccccc3)N1[C@@H]2c1ccc(O)cc1 | inactive: 1.04 |
| Cc1noc(C)c1NC(=O)Nc1ccc2c(c1)C(=O)N([C@@H](C)CO)C[C@@H](C)[C@@H](CN(C)Cc1ccc3c(c1)OCO3)OCCCC[C@H](C)O2 | inactive: 1.01 |
| C[C@@H]1CN([C@H](C)CO)C(=O)Cc2cc(NC(=O)Nc3ccc4c(c3)OCO4)ccc2O[C@H]1CN(C)S(C)(=O)=O | inactive: 1.02 |
| COc1cc(O)c2c(=O)cc(C)oc2c1CC=C(C)C | inactive: 0.918 |

| SMILES | relative growth |
| --- | --- |
| C[C@@H]1CCCCO[C@@H](CN(C)S(=O)(=O)c2cccs2)[C@@H](C)CN([C@H](C)CO)C(=O)c2cc(NC(=O)Nc3ccccc3)ccc2O1 | inactive: 1.02 |
| COc1ccc2c3c([nH]c2c1)[C@@H](CO)N(C[C@]13CN(CC2CCOCC2)C1)C(=O)Nc1c(noc1C)C | inactive: 0.984 |
| C[C@H](O)[C@H](O)[C@@H](O)[C@@H](O)/C=N/NC(=O)c1ccccn1 | inactive: 1 |
| COCCNC(=O)C[C@@H]1CC[C@@H]2[C@@H](COc3ccc(NS(=O)(=O)c4ccc(Cl)cc4)cc3C(=O)N2C)O1 | inactive: 0.988 |
| C=CCn1c(N2CCN(c3ccc(OC)cc3)CC2)nc2c1c(=O)n(C)c(=O)n2C | inactive: 0.996 |
| COc1ccc(CN(C)C[C@@H]2Oc3ccc(NC(=O)Nc4ccc(C(F)(F)F)cc4)cc3CC(=O)N([C@H](C)CO)C[C@H]2C)cc1 | inactive: 0.969 |
| CC(C)(N)CN1CCCCC1 | inactive: 0.994 |
| Cc1noc(C)c1NC(=O)N(C)C[C@H]1OCCCC[C@@H](C)Oc2ccc(NC(=O)Nc3ccc4c(c3)OCO4)cc2C(=O)N([C@@H](C)CO)C[C@H]1C | inactive: 0.989 |
| COc1ccc(S(=O)(=O)N(C)C[C@H]2OCCCC[C@H](C)Oc3ccc(NC(=O)Nc4ccc(C(F)(F)F)cc4)cc3C(=O)N([C@@H](C)CO)C[C@H]2C)cc1 | inactive: 1.01 |
| O=C(O)/C=C/C(=O)O | inactive: 1.02 |
| C[C@H]1CN([C@@H](C)CO)C(=O)c2cccc(NC(=O)C3CCOCC3)c2O[C@H]1CN(C)Cc1ccncc1 | inactive: 1.01 |
| C[C@H]1CN([C@@H](C)CO)S(=O)(=O)c2ccc(C#CCN(C)C)cc2O[C@@H]1CN(C)Cc1ccccn1 | inactive: 0.992 |
| O=C(C[C@H]1C=C[C@H](NC(=O)Cc2ccccn2)[C@@H](CO)O1)NCCc1ccncc1 | inactive: 0.991 |
| C[C@@H]1CN([C@H](C)CO)C(=O)c2cc(C#CC3CCCCC3)cnc2O[C@@H]1CN(C)C(=O)Cc1ccccn1 | inactive: 1 |
| CC(C)NC(=O)N(C)C[C@@H]1OCc2cnnn2CCCC(=O)N([C@H](C)CO)C[C@H]1C | inactive: 0.99 |
| C[C@H](CO)N1C[C@H](C)[C@@H](CN(C)S(=O)(=O)c2ccc(F)cc2)Oc2ccc(NC(=O)c3ccncc3)cc2CC1=O | inactive: 0.989 |
| C[C@H](NC(=O)C[C@H]1C=C[C@H](NC(=O)CN2CCOCC2)[C@@H](CO)O1)c1ccccc1 | inactive: 0.983 |
| C[C@@H]1CN([C@@H](C)CO)C(=O)c2cc(NC(=O)c3ccncc3)ccc2O[C@@H]1CN(C)Cc1ccncc1 | inactive: 0.993 |
| COc1ccc(S(=O)(=O)N2C[C@H](O)COC[C@H]3O[C@H](CC(=O)N[C@@H]4CCN(Cc5ccccc5)C4)CC[C@@H]32)cc1 | inactive: 1.01 |

Source: the supplement of paper PMC9446081
